Among all 310,000 compounds or so, about 14,000 (4.5%) showed an effect of 50% or more. The effect is printed as a negative number. This is one part of the list.
The compounds below were run against human ether-à-go-go-related gene (hERG) potassium channel (human, UniProt Q12809) (assay: primary screen, population patch clamp on CHO cells stably expressing hERG).
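Further: peak tail current of the secondary pulse compared with the same well before compound.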

Sequence of human ether-à-go-go-related gene (hERG) potassium channel (Q12809 whole entry, looked up): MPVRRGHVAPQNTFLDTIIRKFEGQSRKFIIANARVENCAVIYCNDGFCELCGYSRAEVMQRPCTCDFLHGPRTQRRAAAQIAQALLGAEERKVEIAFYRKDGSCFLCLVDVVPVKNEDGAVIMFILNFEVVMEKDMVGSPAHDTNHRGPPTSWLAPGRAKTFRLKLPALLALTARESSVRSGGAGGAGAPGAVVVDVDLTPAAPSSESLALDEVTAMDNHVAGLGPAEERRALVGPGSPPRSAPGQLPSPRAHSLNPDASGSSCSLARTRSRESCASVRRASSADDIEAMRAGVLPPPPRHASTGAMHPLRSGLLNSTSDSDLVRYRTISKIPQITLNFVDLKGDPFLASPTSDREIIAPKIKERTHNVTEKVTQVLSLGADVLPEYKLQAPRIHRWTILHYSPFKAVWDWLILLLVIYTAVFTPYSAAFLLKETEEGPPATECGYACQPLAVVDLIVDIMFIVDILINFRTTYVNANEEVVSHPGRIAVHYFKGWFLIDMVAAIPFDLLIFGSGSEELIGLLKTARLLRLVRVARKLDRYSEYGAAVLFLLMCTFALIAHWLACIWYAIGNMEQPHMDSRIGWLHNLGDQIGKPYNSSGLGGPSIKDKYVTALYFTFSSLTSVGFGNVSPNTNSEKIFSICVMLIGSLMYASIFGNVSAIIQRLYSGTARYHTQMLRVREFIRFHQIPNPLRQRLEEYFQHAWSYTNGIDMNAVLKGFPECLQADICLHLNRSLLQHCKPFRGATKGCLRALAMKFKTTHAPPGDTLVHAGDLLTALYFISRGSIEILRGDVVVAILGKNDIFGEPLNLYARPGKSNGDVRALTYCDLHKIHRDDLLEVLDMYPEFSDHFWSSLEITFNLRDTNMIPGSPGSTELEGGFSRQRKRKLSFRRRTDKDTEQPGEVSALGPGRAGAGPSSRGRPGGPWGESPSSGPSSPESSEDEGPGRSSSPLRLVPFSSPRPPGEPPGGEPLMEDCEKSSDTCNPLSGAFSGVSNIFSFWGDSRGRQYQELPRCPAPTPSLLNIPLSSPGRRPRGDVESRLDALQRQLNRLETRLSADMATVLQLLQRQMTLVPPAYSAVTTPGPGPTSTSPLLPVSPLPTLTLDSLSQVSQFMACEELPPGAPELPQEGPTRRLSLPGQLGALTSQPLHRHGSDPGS

Compared with `CCC(=NCCc1ccccc1)c1c(O)[nH]c(=O)[nH]c1=O`, `CCn1c(=O)cc(SCC(=O)N(C)Cc2ccccc2)c2ccccc21` is lower in “hERG current change (%, negative = inhibition) at 10uM” value: 10.1% for the first, -19.6% for the second.

First: CCOC(=O)C1CCN(c2c(NCCN3CCCCC3C)c(=O)c2=O)CC1 (stereo not shown)
Second: CN(CC1CCOCC1)C(=O)CC1C(=O)NCCN1Cc1ccc(Cl)c(F)c1 (stereo not shown)
The “hERG current change (%, negative = inhibition) at 10uM” value of the first is lower: -38.9% for the first, 10.4% for the second.

Compared with `Nc1nc(Cl)cc(N2CCC(c3cc(-c4ccc(Cl)cc4)n[nH]3)CC2)n1`, `COc1cc(OC)cc(C(=O)NC2CCCN(Cc3ccc(Cl)cc3)C2)c1` (stereo not shown) is lower in “hERG current change (%, negative = inhibition) at 10uM” value: 9.57% for the first, -37.1% for the second.

First: O=C(NCCc1ccccn1)C1CCN(S(=O)(=O)c2ccc(Cl)cc2)CC1
Second: CN(c1ccccc1)S(=O)(=O)c1cccc(C(=O)NC2CCCCC2)c1
The “hERG current change (%, negative = inhibition) at 10uM” value of the first is lower: -36.6% for the first, -18% for the second.

Compared with `Cc1nn(S(=O)(=O)c2ccccc2)c(C)c1Sc1ccc([N+](=O)[O-])cc1`, `O=C1CC(Cc2ccc(Br)cc2)C(=O)N1c1ccccc1` (stereo not shown) is lower in “hERG current change (%, negative = inhibition) at 10uM” value: -6.26% for the first, -10.6% for the second.

Going from `CC(=O)Nc1cccc(C(=O)OC(C(=O)c2ccc(C)cc2)c2ccccc2)c1` (stereo not shown) to `Cc1cccc(C(OC(=O)c2ccco2)C(=O)NCc2ccccc2)n1` (stereo not shown), the “hERG current change (%, negative = inhibition) at 10uM” value falls from 1.77% to -19.7%.

First: O=C(Cc1ccccc1)NC(NNc1ccccc1)(C(F)(F)F)C(F)(F)F
Second: CC1CN(C(=O)Nc2ccccc2)c2ccccc2-[n+]2ccsc21.[Br-] (stereo not shown)
The “hERG current change (%, negative = inhibition) at 10uM” value of the first is higher: 15.2% for the first, 1.52% for the second.

Compared with `COc1cccc(NC(=O)CCCN2C(=O)C3CC=CCC3C2=O)c1` (stereo not shown), `CCCCCn1c(=O)[nH]c2cc(C(=O)Nc3ccc(OC)cc3)ccc2c1=O` is higher in “hERG current change (%, negative = inhibition) at 10uM” value: -2.79% for the first, 14.9% for the second.

Going from `COc1ccc(C(=O)N2CCN(CCCc3ccccc3)CC2)cc1OC.O=C(O)C(=O)O` to `COC(=O)c1ccc(NC(=O)CN(C)Cc2cccc(F)c2)cc1`, the “hERG current change (%, negative = inhibition) at 10uM” value rises from -73.3% to -4.88%.

Compared with `O=C(c1c(F)cccc1F)N1CCC(n2nnc3cc(C(F)(F)F)ccc32)CC1`, `O=C(c1ccc2c(Cl)c3c(nc2c1)CCCC3)N1CCN(c2ccc(F)cc2)CC1` is higher in “hERG current change (%, negative = inhibition) at 10uM” value: -21.4% for the first, -2.1% for the second.

First: Cc1cc(C)c(S(=O)(=O)Cc2ccccc2)c(Cl)n1
Second: Cc1cc(S(=O)(=O)Nc2cccnc2)c(Cl)cc1Cl
The “hERG current change (%, negative = inhibition) at 10uM” value of the first is higher: 11.5% for the first, -1.49% for the second.

First: COc1ccc(-c2ncncc2-c2csc(C)n2)c(O)c1OC
Second: CO/N=C/NC(=O)c1c(OC)ccnc1Oc1ccc(F)cc1
The “hERG current change (%, negative = inhibition) at 10uM” value of the first is higher: 2.21% for the first, -5.89% for the second.

Compared with `S=c1[nH]nc(Cc2noc3ccccc23)n1-c1ccccc1`, `Cc1c(NC(=O)Cn2[nH]c(=O)c3ccccc3c2=O)c(=O)n(-c2ccccc2)n1C` is lower in “hERG current change (%, negative = inhibition) at 10uM” value: 26.3% for the first, 12.5% for the second.

First: C=CCN(CC=C)C(=O)COn1nnc2ccc(S(=O)(=O)N3CCOCC3)cc21
Second: O=C(CNC(=O)C1CCCCC1)OCn1nnc2ccccc2c1=O
The “hERG current change (%, negative = inhibition) at 10uM” value of the first is lower: -4.71% for the first, 7.18% for the second.

Going from `Cc1ccc2occ(/C=N/NC(=O)[C@@H](N)Cc3ccccc3)c(=O)c2c1.Cl` to `Cc1ccc2oc(=O)n(Cc3ccccc3OC(C)C)c2c1`, the “hERG current change (%, negative = inhibition) at 10uM” value rises from -22.5% to 5.7%.

Going from `COC(=O)CCc1sc(NC2CCCCC2)nc1-c1ccc(OC)cc1` to `COc1ccc(C(=O)c2nc3c(n2O)CCCCC3)cc1`, the “hERG current change (%, negative = inhibition) at 10uM” value falls from 8.55% to -19%.

Going from `O=C(O)C1CC=CCC1C(=O)Nc1ccc(F)c(F)c1` (stereo not shown) to `O=C(NC1CCCC1)C(c1ccccc1)N(C(=O)c1csnn1)c1ccccc1F` (stereo not shown), the “hERG current change (%, negative = inhibition) at 10uM” value falls from 28.2% to 0.989%.

Going from `CCOC(=O)c1c(C)[nH]c(C(=O)OCC(=O)Nc2sccc2C(N)=O)c1C` to `CCOC(=O)c1c(-c2ccc(OCC)cc2)csc1NC(=O)CCN1C(=O)c2ccccc2C1=O`, the “hERG current change (%, negative = inhibition) at 10uM” value rises from 2.13% to 21.2%.

Going from `O=C(N/N=C/c1ccccc1)c1ccc(CN2C(=O)c3cccc4cccc2c34)cc1` to `Cc1ccc(-c2nc(CCN3C(=O)c4ccccc4C3=O)cs2)cc1`, the “hERG current change (%, negative = inhibition) at 10uM” value falls from -4.32% to -19.6%.

Compared with `CCOc1ccccc1Nc1nnc(SCC(=O)Nc2cccc(S(=O)(=O)NC3=NCCCCC3)c2)s1`, `CC(=O)Nc1ccc(S(=O)(=O)Nc2nc3ccccc3nc2Nc2cccc(S(N)(=O)=O)c2)cc1` is higher in “hERG current change (%, negative = inhibition) at 10uM” value: 5.08% for the first, 10.3% for the second.

Compared with `O=c1c2[nH]c3ccc(F)cc3c2nc2n1CCCS2`, `Cc1noc(C)c1CSCC(=O)Nc1nc2ccc(F)cc2s1` is lower in “hERG current change (%, negative = inhibition) at 10uM” value: -3.41% for the first, -16.7% for the second.

Going from `Cc1ccc(C)c(NC(=O)CSc2n[nH]c(-c3ccncc3)n2)c1` to `CCc1cc2cccc(C)c2nc1SCC(=O)c1ccc(NC(C)=O)cc1`, the “hERG current change (%, negative = inhibition) at 10uM” value falls from 7.24% to -6.78%.

Going from `COc1ccc(CN2C(=O)NC3(CCCCC3)C2=O)cc1F` to `COCCCNC(=S)N1CCC(C(=O)c2ccc3c(c2)OCCO3)CC1`, the “hERG current change (%, negative = inhibition) at 10uM” value rises from -15.8% to -11.7%.

First: Clc1cccc(Cl)c1Cn1nnc(-c2cccs2)n1
Second: Cc1ccc(-c2nnc3sc(C4COc5ccccc5O4)nn23)cc1 (stereo not shown)
The “hERG current change (%, negative = inhibition) at 10uM” value of the first is higher: -1.03% for the first, -1.05% for the second.

Compared with `CCCc1noc2c1/C(=N\O)CCC2`, `CCN1/C(=C/C(C)=C/c2sc3ccccc3[n+]2CC)Sc2ccccc21.[I-]` is lower in “hERG current change (%, negative = inhibition) at 10uM” value: 13.1% for the first, -78.8% for the second.

Compared with `Cc1c(C(c2cccc([N+](=O)[O-])c2O)c2c(C)n(C)n(-c3ccccc3)c2=O)c(=O)n(-c2ccccc2)n1C`, `Cc1ccc(C(O)P(=O)(OC(C)C)c2ccc(N(C)C)cc2)cc1` (stereo not shown) is higher in “hERG current change (%, negative = inhibition) at 10uM” value: -2.28% for the first, 11.5% for the second.

First: Cc1ccc(NC(=O)CSCC(=O)Nc2sccc2C#N)cc1
Second: Nc1nc2n(n1)C(c1ccco1)CC(c1ccc(F)cc1)N2 (stereo not shown)
The “hERG current change (%, negative = inhibition) at 10uM” value of the first is higher: 0.712% for the first, -4.9% for the second.

In the case of `CC(C)(C)Nc1ncnc2c1cnn2-c1ccccc1`, the “hERG current change (%, negative = inhibition) at 10uM” value is reported as -4.54%.
